Measurements from PubChem BioAssay AID1508624 (National Center for Advancing Translational Sciences (NCATS), 2021).
Among all 48,000 compounds or so, about 120 (0.25%) were called active. Roughly 4% stayed inconclusive and do not appear here. Calls follow the shape of the dose curve; as a rule, active = well fitted activation curve with a large enough effect; inconclusive = small, poorly fitted or top-dose-only effect, or another doubt; inactive = no such curve, though single readings can be large or run the other way. Some of the results follow.

test: Primary qHTS for Identification of Small Molecule Activators of Huntingtin-Antisense Promoter Activity; settings: HEK293 HTT-AS promoter firefly luciferase reporter, 24 h; series mostly up to 57.5 µM; activity change, positive = activation: at the top concentration; also: nearly all actives have a fitted effect of over 55% in size
Outline: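 Luminescence was read after Dual-Glo reagent and a 10 min room-temperature incubation. Values were normalized to vehicle (0% activity) and zero RLU (-100% activity). Reporter HEK293 cells had been exposed to compounds (up to 57.5 uM final) for 24 h.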

Activity change, positive = activation, inactive:
CCC(C)Nc1oc(-c2ccc(COc3ccc(Cl)cc3)o2)nc1C#N (configuration not stated) -38%, O=C(Nc1ccc(OCc2cc(=O)n3ccccc3n2)cc1)c1ccccc1Cl 22.4%, Cc1cccc(OCC(O)Cn2c(=N)n(CCN3CCCCC3)c3ccccc32)c1 (configuration not stated) -20.6%, CCc1ccc(CN(Cc2ccco2)C(=O)COc2ccc(Cl)c(C)c2)cc1 -15.3%, CCn1cc(C(=O)NCc2ccc(C)cc2)c(=O)c2cc(S(=O)(=O)N(C)C3CCCCC3)ccc21 0.145%, CCC(C)NC(=O)CSc1nc2c(sc3ccccc32)c(=O)n1CCc1ccc(OC)c(OC)c1 (configuration not stated) -5.49%, CCN(CC)c1nc2c(S(=O)(=O)c3cccc(Cl)c3)nnn2c2ccsc12 -41.3%, Cc1cc(C)n(-c2nc3cc(Cl)ccc3nc2Nc2ccc(CC(=O)O)cc2)n1 -2.24%, COc1ccc2nc(NC(=O)c3nc(SCc4ccccc4F)ncc3Cl)sc2c1 18.8%, COc1ccccc1CNC(=O)C1CCN(S(=O)(=O)c2ccc3c(ccn3C)c2)CC1 -7.75%, CCCCn1c(NCc2cc(Br)ccc2O)nc2ccccc21 -40.9%, COC(=O)c1c(-c2cccs2)csc1NC(=O)c1ccc(OC)c(OC)c1 9.04%, CCNC(=O)C1CCN(c2nnc(C)c3c(C)n(-c4ccc(OC)cc4)nc23)CC1 -0.616%, Cc1cccc(NC(c2ccccc2C)c2ccc3ccc(C)nc3c2O)n1 (configuration not stated) -30.7%, CCOC(=O)CSc1nc(-c2ccc(Cl)cc2)cc(C(F)(F)F)c1C#N -11.6%, Cc1ccc(C(=O)Oc2c(S(=O)(=O)c3ccccc3)c(C)nn2-c2ccccc2)cc1 -16%, CN1C(=O)c2ccccc2Sc2ccc(NC(=O)NCc3cccc(Cl)c3)cc21 -37.8%, Cc1ccc(NC(=O)CCNS(=O)(=O)c2cccc3nonc23)cc1Cl -14.4%, Cc1cn2c(=O)cc(COC(=O)c3cccc(NC(=O)COc4ccccc4C)c3)nc2s1 -10.2%, Cc1ccc(Cc2nc3ccccc3nc2SCC(=O)N2CCCc3ccccc32)cc1 -1.4%, COc1ccc(-n2c(-c3ccc(C)cc3)cc3c2CC(C)(C)CC3=O)c(OC)c1 -35.5%, Cc1ccccc1N1C(=O)c2cc(S(N)(=O)=O)c(Cl)cc2NC1C (configuration not stated), Cc1ccccc1C(=O)NCCc1csc(-c2ccc(C(F)(F)F)cc2)n1 -32.2%, CCCNC(=O)C(C)n1nc(C)c2c(C)n(-c3ccccc3)nc2c1=O (configuration not stated) -32%, Cc1ccc(CNC(=O)CSc2c3c(nc4cc(Cl)ccc24)CCCC3)cc1 -16.7%, CC[C@H](NC(C)C)[C@H](O)c1ccc(O)c2[nH]c(=O)ccc12, O=C(O)CNC(=O)c1ccccc1I -10.3%, CCN1CCN(C(=O)Cn2c(-c3cccs3)cc3ccccc32)CC1 -7.37%, COc1nc(-c2ccccc2)ccc1-c1noc(-c2ccccc2Br)n1 -3.6%, COc1ccc(CCNC(=O)c2ccc3c(c2)N(Cc2ccccc2F)C(=O)c2ccccc2S3=O)cc1OC (configuration not stated) -20.9%, CCOc1ccccc1CNC(=O)CCc1c(C)nn(-c2ccc(N3CCOCC3)nn2)c1C -13.9%, O=C(CN1C(=O)COc2ccc(S(=O)(=O)N3CCCC3)cc21)N1CCN(c2cccc(C(F)(F)F)c2)CC1 -32.9%, COc1ccc(N2CCN(S(=O)(=O)CCNC(=O)COc3ccccc3F)CC2)cc1 -9.93%, CCN(CC)S(=O)(=O)c1ccc(C(=O)NCCSc2c(-c3ccc(C)cc3)[nH]c3ccccc23)cc1 -25.7%, Cc1c(Cl)cccc1-n1ncc(C(=O)NCc2cccs2)c1C1CCN(C(=O)OC(C)(C)C)CC1 -31.9%, COC(=O)c1c(NC(=O)c2cc(OC)c(OC)c(OC)c2Br)sc2c1CCC(C)C2 (configuration not stated) 15.7% [at 11.5 µM, percent change from vehicle, -100% = no light], COc1cc(C2c3c(-c4ccc(C)cc4)n[nH]c3C(=O)N2c2ccc(F)cc2)ccc1O (configuration not stated) -54.9%, Cc1cccc(NC(=O)c2cc(S(=O)(=O)N3CCN(c4ccccc4F)CC3)ccc2F)c1C -24.9%, COc1ccc(CNC(=O)CCn2nc(C)c3c(C)n(-c4ccccc4)nc3c2=O)c(OC)c1 2.68%, CNC(=O)Cn1c(=O)c2cccn2c2ccc(F)cc21 6.31%, CC(C)CNc1ncnc2c1nnn2C 5.96%, O=C(CCNS(=O)(=O)c1cccc2nsnc12)NCc1ccccc1 -1.36%, COc1ccc(CNC(=O)c2ccc3nc(CCc4ccccc4)oc3c2)c(OC)c1 5.73%, CCOc1ccccc1NC(=O)Cn1c(=O)n(Cc2ccco2)c(=O)c2ccc(C(=O)NC3CCCC3)cc21 -19%, COc1ccc(Cl)cc1NC(=O)Cn1nc(Cc2ccncc2)c2ccccc2c1=O -18.4%, CCc1ccccc1NC(=O)C1CCN(C(=O)N2CC(C)Oc3ccc(Cl)cc32)CC1 (configuration not stated) -18.9%, COc1ccccc1NC(=O)N1CCC(CN2CCc3ccccc3C2)CC1 12.7%, Cc1cc(F)ccc1NC1(c2ccccc2)C(=O)c2ccccc2C1=O -13.1%, Cc1ccc(OC(=O)CSc2nnc(-c3cccs3)o2)cc1C -2.7%, CCn1cc(C(=O)NCCc2ccc(OC)c(OC)c2)c(=O)c2cc(S(=O)(=O)N3CCC(C)CC3)ccc21 -11.5%, CCOc1ccc(-n2c(SCC(=O)N3CCCCCC3)nc3c([nH]c4ccccc43)c2=O)cc1 -10.5%, CCOc1ccc(N(CC(=O)Nc2ccccc2CC)S(=O)(=O)c2c(C)[nH]c(=O)[nH]c2=O)cc1 0.457% [at 11.5 µM, percent change from vehicle, -100% = no light], Cc1ccc(NC(=O)Cn2c(=O)oc3ccccc32)cc1C -12.6%, CC(C)(C)C1CCc2c(sc3nnn(CCOc4ccccc4)c(=O)c23)C1 (configuration not stated) 9.7%, Cc1ccc(C)c(NC(=O)c2nn(C)c3c2CS(=O)(=O)c2ccccc2-3)c1 -6.65%, COc1cc(/C=C/c2nc(C#N)c(NCCc3ccccc3)o2)cc(OC)c1OC -24.6%, COc1cc(NC(=O)c2nc3ccccc3nc2N2CCCCC2)cc(OC)c1OC -5.56%, Cc1ccc(CNC(=O)c2ccc(-c3nc(CS(=O)c4ccccc4)c(C)o3)cc2)cc1 (configuration not stated) 2.92%, Cc1cccc(-c2nc(CSCC(=O)NCCc3ccc(Cl)cc3)c(C)o2)c1 -23.1%, Cc1ccc(-c2nn(CC(=O)NC3CCCC3)c3c2cnc2ccccc23)cc1 3.12%, Cc1ccc(C)c(NC(=O)CN2C(=O)c3cccnc3Oc3ccc(C)cc32)c1 -18.3%, O=C1N(c2ccccc2)c2ccccc2C1(Cc1ccncc1)Cc1ccncc1, COCCn1ccc2c(OCC(=O)Nc3ccccc3F)cccc2c1=O 12.5%, CCOC(=O)N1CCc2c(sc3c2c(=O)n(CCc2ccccc2)c(=O)n3CC(=O)Nc2cccc(C)c2)C1 -21.2%, COc1ccc(OC)c(C2C(C(=O)N3CCCCC3)=C(C)Nc3nc4ccccc4n32)c1 (configuration not stated) -14.3%, N#C/C(=C/c1cn(Cc2ccccc2Cl)c2ccccc12)C(=O)Nc1cccc(Cl)c1 16.6% [at 11.5 µM, percent change from vehicle, -100% = no light], CC(C)(C)c1ccc(CN(Cc2ccco2)c2cnc(S(C)(=O)=O)nc2C(=O)Nc2ccc(F)cc2)cc1 -15.1%, Cc1cc(C)c(NC(=O)Cn2c(=O)nc(-c3ccccc3)c3cc(Cl)ccc32)c(C)c1 -1.51%, COc1cc(NC(=O)N2CCC3(CC2)Nc2cc(F)ccc2-n2cccc23)cc(OC)c1OC -31.3%, Cc1cc(=O)n(Cc2cccc(F)c2)c2c1c(C)nn2-c1cccc(F)c1 -14.1%, CCc1cccc(CC)c1-n1nnc2c(sc3nc(C)cc(C)c32)c1=O -10.4%, Cc1ccccc1CN1c2ccccc2-c2nc(SCC(N)=O)ncc2S1(=O)=O 18.9%, O=C(CSc1nc(-c2ccc(F)cc2)[nH]c1-c1ccccc1)Nc1ccccc1 -30%, CCc1ccc(-c2nn(CC(=O)Nc3ccccc3C)c3c2cnc2ccc(C)cc23)cc1 6.37%, CCn1cc2nc(SCc3cccc(C(F)(F)F)c3)n(Cc3ccc(Cl)cc3)c(=O)c2n1 10.1%, COc1ccc(OC)c(NC(=O)CCCc2nnc3n(C(C)C)c(=O)c4sccc4n23)c1 11.4%, Cc1ccc(Cl)cc1-n1nnc(-c2nsc(NC(=O)c3ccccc3Cl)n2)c1C -2.77%, Cc1ccc2oc(C(=O)Nc3ccc(S(=O)(=O)N4CCCC(C)C4)cc3)cc(=O)c2c1 (configuration not stated) 4.97%, O=C(O)c1ccccc1C(=O)Nc1ccc(-c2ccccc2)cc1 -61.2%, Cc1ccc(C)c(N2CCN(C(=O)c3cnn(C(C)(C)C)c3C3CCN(C(=O)OC(C)(C)C)CC3)CC2)c1 -37.7%, COc1ccc(Cl)cc1NC(=O)NCCn1c(=O)oc2ccc(C)cc21 -28.7%, CCc1ccc(-n2c(=O)c3ccccc3n(CC(=O)NCCc3ccc(OC)c(OC)c3)c2=O)cc1 -18%, COc1ccc(C)cc1NC(=O)N1CCC(CN2CCOCC2)CC1 -15.5%, Cc1ccc2cc3cc(C(=O)N4CCN(c5ccc(Cl)cc5)CC4)oc3nc2c1 -1.22%, Cn1cc(S(C)=O)c(=O)c2ccc(F)cc21 (configuration not stated) 1.84%, Cc1ccccc1NC(=O)c1c(NC(=O)c2ccccc2)sc2c1CCC2 14.8%, CCN(CC)C(=O)c1sc2c(c1C)c(=O)n(-c1ccccc1)c(=O)n2Cc1c(C)cc(C)cc1C -17%, COc1ccc(-c2cn3nc(N4CCC(C(=O)Nc5ccccc5OC)CC4)sc3n2)cc1 3.79%, CCOc1ccc(NC(=O)CC2C(=O)N(c3ccccc3)C(=O)N2CCc2cccs2)cc1 (configuration not stated) -24.4%, Cc1ccc(CCNC(=O)c2sc3ncccc3c2-n2c(C)ccc2C)cc1 9.88%, CC1CCCCN1c1c(S(=O)(=O)c2ccc(Cl)cc2)cnc2ccccc12 (configuration not stated) -26.8%, CCC(=O)Nc1ccc(CC)cc1-c1nc2ccccc2n(CC(=O)Nc2cccc(OC)c2)c1=O -24.8%
